# Measurements: the supplement of paper PMC3334620
# In all, about 33,000 sequences were measured (“E-score (-0.5 to 0.5)”: median about -0.012, highest 2% from about 0.27 on). The list shows a part of the results.
# Target: T1, Vhr1 (UniProt P40522)
# T1 sequence: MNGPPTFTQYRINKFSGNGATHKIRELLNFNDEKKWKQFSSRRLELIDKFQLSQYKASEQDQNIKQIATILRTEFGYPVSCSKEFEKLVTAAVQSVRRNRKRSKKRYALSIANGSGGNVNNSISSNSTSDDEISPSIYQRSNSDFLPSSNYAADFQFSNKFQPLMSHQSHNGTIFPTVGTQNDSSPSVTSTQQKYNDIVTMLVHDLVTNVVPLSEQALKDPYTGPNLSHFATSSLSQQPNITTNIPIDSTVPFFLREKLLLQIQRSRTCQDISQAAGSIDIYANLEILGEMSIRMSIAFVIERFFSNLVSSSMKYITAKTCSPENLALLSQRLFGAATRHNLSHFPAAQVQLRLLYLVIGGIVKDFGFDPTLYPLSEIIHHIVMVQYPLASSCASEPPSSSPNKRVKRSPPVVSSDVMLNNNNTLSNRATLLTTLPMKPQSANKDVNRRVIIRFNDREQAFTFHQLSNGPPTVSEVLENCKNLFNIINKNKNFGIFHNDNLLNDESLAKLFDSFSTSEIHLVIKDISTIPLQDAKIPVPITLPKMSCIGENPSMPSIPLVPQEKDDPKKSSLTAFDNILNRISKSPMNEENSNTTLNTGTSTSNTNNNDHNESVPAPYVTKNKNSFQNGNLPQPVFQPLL
# Assay: PBM E-score (8-mer binding enrichment) (E-score (-0.5 to 0.5)); higher = stronger / more preferred TF binding; most listed sequences are background and not binding sites
# Conditions: protein concentration: 200 nM; construct: GST-full length
# How it was run: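 Universal all-10-mer Agilent arrays, fresh or stripped once, were converted to double-stranded form by primer extension. GST-tagged yeast transcription factors from PURExpress in vitro transcription/translation, full-length or DNA-binding domain only, were applied at about 100-200 nM and detected with fluorescent anti-GST. After masliner normalisation, the Universal PBM Analysis Suite scored each ungapped eight-base word together with its reverse complement by E-score.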
row,Sequence,PBM E-score
1,CAGCTCGA,0.0856
2,AGAAACGG,-0.0496
3,GCTGATTA,0.197
4,GACGCGTA,0.00616
5,GGTAACAA,-0.00432
6,CATACTAC,0.229
7,AGTACACG,0.0779
8,TACGCCCA,-0.0321
9,CGGTATAG,-0.0544
10,CATCCTTC,-0.0237
11,CTTAATGC,-0.143
12,AAACAATT,-0.011
13,AAACGGTG,-0.11
14,CTAATTAA,-0.259
15,AACAATAT,0.246
16,CACCGGAG,0.0088
17,AGGGGAGC,-0.0736
18,ACAAACCC,-0.137
19,GGACGGCC,0.0174
20,AAGTCTAA,-0.251
21,CAATTTAG,0.0502
22,CGGGTCGC,0.115
23,TAGGTAAA,-0.237
24,TGTAGAAA,-0.14
25,TCTCATAA,-0.00956

row,Sequence,PBM E-score
1,ATGCTCAC,0.0744
2,CCTTCGCC,-0.031
3,ATTCGCGG,0.042
4,ACATCTCC,0.106
5,AACCTGGA,0.0728
6,CCCCTCAG,-0.018
7,CATACAAC,0.14
8,CCGGATTC,0.0253
9,CTCCTACA,0.071
10,AACCACTT,0.111
11,AGCTTCCC,-0.131
12,TGCTACAA,-0.036
13,AATCTTCA,0.0143
14,CGACCCAC,0.194
15,AGGAAGCC,-0.0261
16,AAGCATTG,-0.0635
17,GAACGGAC,-0.134
18,AGGAGATC,0.0381
19,AGCCTTAA,-0.246
20,AAGGGTAC,-0.267
21,AACAAGTG,-0.155
22,GTGGAGCA,-0.0267
23,AAGTATTG,0.0622
24,GGAGCCGA,0.0464
25,CCCAGTTC,-0.0222

row,Sequence,PBM E-score
1,TGTCCACA,-0.0343
2,TATTTGCA,-0.0247
3,ACACTGAT,-0.107
4,GTGTTTGA,0.0645
5,GCTCCGAA,-0.0864
6,AGTATTCC,0.0833
7,CAGCACTA,0.0511
8,CTATTCGA,-0.217
9,CTTGCCGC,-0.147
10,CAAAGTCA,0.103
11,AGATGCAC,0.00583
12,GAATTCAA,0.00057
13,CCGAGGTA,-0.00187
14,GGCATCCA,-0.218
15,GGTTAGCA,-0.0628
16,AAAAATGC,-0.153
17,GAAGCTTC,-0.222
18,CGTTACAC,0.072
19,ATTACACC,0.0693
20,CTACGCAC,0.0486
21,GGTGTCCA,-0.0191
22,ACTGAAAG,-0.116
23,CCCTTGGA,0.0276
24,CCAGCGTA,-0.0105
25,GCGTTTCA,-0.0863

row,Sequence,PBM E-score
1,GAGTAGTA,0.0825
2,CCAGTACC,0.0753
3,CCTACCCG,0.0701
4,CACATAGC,0.135
5,AGCCGGGG,0.111
6,CGATCGAA,0.0119
7,ATGGCGCA,0.0297
8,AATCCGCG,-0.113
9,ACTATTTA,-0.0988
10,CTACTTAC,-0.0946
11,CATCTGAC,0.0529
12,AATTCTGT,-0.154
13,GCCGAACC,-0.118
14,AACAATTA,0.0736
15,GGTGGGAC,-0.021
16,AACTATCC,-0.11
17,AGCTATGC,-0.15
18,CAATGGCA,0.0943
19,ACCTACTA,0.0622
20,TTACCGAA,-0.0476
21,TGATATCA,0.043
22,ATTATGCG,0.269
23,ATAGGATC,-0.0462
24,ACTGTGAG,0.139
25,CTATCACA,0.0972

row,Sequence,PBM E-score
1,GCTTACCA,-0.0427
2,CAAACCTA,-0.0907
3,AGCATTCC,-0.131
4,CTTTTTTA,-0.141
5,CAACATAG,0.0191
6,CTCAAATC,-0.0641
7,AACCAAAG,0.0286
8,CCACGGCC,-0.0304
9,CCGGGGTA,-0.186
10,CCAGGGGG,-0.0261
11,AATGTGGG,0.122
12,ACTGGCCC,0.0921
13,GCGAACAA,0.108
14,GCGTCTCA,-0.0288
15,ACCGCCCA,-0.132
16,AAGAGACA,0.0149
17,AACAGGGC,0.0287
18,AATGAGAC,-0.113
19,TCAACCAA,0.0298
20,ACCTTGAT,0.0042
21,TGATGTAA,0.0584
22,GTGGTTCA,0.254
23,TAACCGGA,0.0968
24,CACTACAC,0.163
25,CGTTTGGA,-0.0625

row,Sequence,PBM E-score
1,CTTTGGCC,-0.254
2,CGGGCATA,0.0519
3,AAGCTGCG,-0.174
4,AATCAGTA,0.099
5,GCGATGTA,0.126
6,AGTACCAG,0.0678
7,AGTCTGTG,0.124
8,ACCTCTGC,-0.137
9,GGACGTGA,-0.0205
10,AATGCTTC,-0.166
11,GAGTAAAC,-0.156
12,ATTACGTA,0.109
13,GTTAGAAC,-0.161
14,AGCTCGGG,0.0777
15,ACTGATTG,-0.00926
16,AACCTATT,-0.103
17,AGGGAACG,-0.261
18,CCCTAAGA,-0.192
19,CCAAGACC,-0.0739
20,ATCGTTCA,-0.00384
21,AGATATAA,-0.00935
22,CTTTTTCA,-0.292
23,CTAAAGAC,-0.288
24,GGCCTAAC,-0.103
25,CAACTGCC,-0.0867

row,Sequence,PBM E-score
1,GCTAGGGA,-0.0169
2,ATCCACCC,0.24
3,TCAGTGAA,0.0379
4,ACCTGGCG,-0.0353
5,CCATGATC,0.0523
6,AAAAATCC,-0.0382
7,GATCCAGC,0.0577
8,ATTCTGGC,0.0694
9,AAAGAAAC,-0.219
10,AGCTATAA,-0.147
11,CGGGGAAG,-0.102
12,ATGAGCAC,0.0768
13,ACGTGAAG,-0.136
14,CCACGTAC,-0.0261
15,CAGCGAGA,-0.0324
16,AGGCTATG,-0.0464
17,CGTGATTA,0.236
18,GAGTTAAC,-0.109
19,CCAGGCGC,-0.106
20,ACGACGAC,-0.0433
21,GAACATCA,-0.14
22,GCTCGTCC,0.00841
